Experimental findings from the RNAGym collection of RNA variant scans (doi:10.7554/elife.90254) are described below.

To fix the notation:
B1: OR4K15 (parent)
chain: GUUAACGGUCAUAGGCCAUGGAAACUAGGAGCACCAUUUCGCUGCCAGUGAAGAAAUGAACAAAGAAAAUCUGGGCCAGGCAGGCAUCAAAAGAAAUAGUCUUGCGCUCAACCAGAAAGUCUGUAAUCAUUUUAAGGGUA

Read counts are not given, so values of variants with three or more changes are uncertain.

In this series the parent is B1. In words: self-cleavage, relative activity (ratio to wild type); higher = more cleavage; in vitro, sequencing; the parent is a self-cleaving ribozyme.
As to U9C U19C A59G A69G A91G, the self-cleavage was 0.73. As for A11C A69G A95U U103C, the self-cleavage was determined as 1.29.

Turning to U9G A36C A86U, the self-cleavage was determined as 1.36. In the case of A11G A18U U43C U49C A125G, the self-cleavage came to 0.18. The value for U9C A47U U49A A54G A78U A114G was 0.24; that for C10U U39C U130C was 0.93. The value for U9G A56G A90G U127A was 0.94. As for U9C A30U C61U, the figure is 1.32; as for U9C G29A A55G A67G, 1.62. As to U9C A30G U57C G58A A60G U100C, the self-cleavage came to 1.89.

With U9C C25A U49C U102A, the self-cleavage worked out at 0.71. Regarding U9C C17U C35U U37C A116U, the self-cleavage was determined as 0.37.

Consider U9C A36U A52G A68G A82C U132A, for which the self-cleavage worked out at 0.23. For U9C A64G A67G U127A, the self-cleavage was found to be 2.3. As for U9C A89U A129G, the figure is 0.63. As for U9C A60G A68G U72C U130C, the figure is 0.22; as for U9C U49C A64U A110G, 0.11; as for U9C A56G A63G, 1.81. As for U9C A95G A116G A117G, the figure is 2.03; as for U9A U57A A118U, 0.38. On to U9C G21A U57C A126U, for which the self-cleavage is 0.47. As for A11C A18C A24G, the figure is 1.08. Take U9C U39A A111G: the self-cleavage is 0.03. As for U9C A54U A86G A114G, the figure is 0.4. As for C10U A11G A55G A86G A91G U122C U131C, the figure is 0.05; as for A11C U103C U124A A135G, 0.31. As for U9C A52C A116G, the figure is 0.17; as for U9C A22G U43A A78U G123U U130C, 0.58; as for U9C A18G U124C, 1.3. U9C C71U G138U: the self-cleavage is 0.93. As to U9A U70A U122C, the self-cleavage was found to be 0.49. For the variant U9C A22G A67G U131A, the self-cleavage was determined as 1.49. The value for A11C U37C U43C A78U was 0.71.

Take U9C A69G C105U: the self-cleavage amounted to 0.24.

As for U9C U108G A125G, the self-cleavage is 0.01.

On to U9C A23G A54G U87C U103C A114G A126G, for which the self-cleavage is 0.06. Turning to U9G A51G A78G G93C, the self-cleavage came to 0.37. The value for U9C U39A G119A U122C was 2.5. As to U9C U49C A95G, the self-cleavage was 1.69. The value for C10A G31A A90G was 0.74. The value for U9C C17A A95G was 1.32; that for U9C U49A A92G was 1.53. The value for U9C A18G A51U was 1.11. On to U9C A11U A117G, for which the self-cleavage amounted to 1.9.

Regarding A11G A23G A33C A59U, the self-cleavage was 1.38. For the variant A11G A18U A59G A111G, the self-cleavage came to 0.03. Consider A11G A22U A56G A118G U127C, for which the self-cleavage was 0.68.

With A11G A18U A90G A126G, the self-cleavage turned out to be 1.31. The value for C10U A23G A56G was 1.12; that for U9C A68U A91G A117G A118G U132A was 0.5; that for U9C A11G C16G A110G was 0.14. As for C10U A82G U103A A110G, the figure is 0.01; as for U9C A55G A69G A91G, 1.26. For the variant U9C A24G A56G A82U, the self-cleavage was determined as 0.67. The value for U9C U39C A67U A82G G119A U131C was 0.61; that for U9C A94G U127C was 1.8; that for U9C U38C A69G was 1.08. Turning to A11C G20U A69G G73A A95G A118G, the self-cleavage was 0.05. As for U9C G41A C85G, the figure is 1.09.

For U9C U120C U132C, the self-cleavage was 1.25. U9C A24G A94G A114U A116G: the self-cleavage was found to be 0. As for U9C A68G U108C, the figure is 0.01; as for U9A U100C U108C, 0.03; as for U9C A11U A33G G44A A82U A91G, 0.07. As to U9C A56G G83A A95G, the self-cleavage came out at 0.55.

As for A11C A64G G74A U130C, the self-cleavage is 0.13.

Take U9C U57C U72A G73U A90G A126G: the self-cleavage was 0.24.

For the variant U9G A54G G99A A116U, the self-cleavage was found to be 0.32. As for C10U C17A A62G A82U, the figure is 0.15. Take U9C A23G A47G A66U: the self-cleavage came out at 0.65. Turning to A11G A22G U102C A140G, the self-cleavage was found to be 1.03. For the variant U9C A64C A91G U122C, the self-cleavage was found to be 0.99. Consider U9C U19C A54G U127C, for which the self-cleavage came to 0.56. The value for U9C G21A A62G A63U U124A was 0.7. The value for U9C A11U A30G U132C was 1.31. As to A11G A18G U72A, the self-cleavage was 0.32.

Take U9C A11G A22G A68G: the self-cleavage worked out at 1.43.

In the case of U9A U72C A96C, the self-cleavage came to 0.08.

Consider U9C U12C A47U U120A U122C, for which the self-cleavage amounted to 0.56. Regarding C10U G79A A89G A140G, the self-cleavage turned out to be 0.11. The value for A11C A92G U131C was 1.33. Take U9C A24G A82U: the self-cleavage came out at 0.44. As for U9C U70A C85U U131C, the figure is 0.14.

On to A11C G29U A47G A63G A95G, for which the self-cleavage came to 1.99. As to A11G A13G A62G U124C U127C, the self-cleavage was determined as 0.42. As for A11C A86U U97G, the figure is 0.7; as for U9C A52G A92G U131C, 2.24. The value for A11C A24C U39A A56U U131C was 1.51.

In the case of U9C U43A U72G A96G, the self-cleavage was found to be 0.4. In the case of U9A U103C U132A, the self-cleavage worked out at 0.14. With U9C A11G A54U A82U A110G U127C, the self-cleavage came out at 0.03.

Consider U9C A51G A86U, for which the self-cleavage was determined as 0.45. As for U9C A67U A78G, the figure is 0.11; as for U9C A18U A30G, 1.28.

With U9A U43A G73U, the self-cleavage was determined as 0.21. In the case of U9A U43C A134G, the self-cleavage was 1.72.

As to U9G A78U A135U, the self-cleavage stood at 0.51. The value for U9C U39A U57A A140G was 1.45. With U9C A30G A36G A116G, the self-cleavage is 0.92.

Consider U9C C10U A69G U132C, for which the self-cleavage worked out at 1.61.

For the variant A11C G84A A92G, the self-cleavage was 2.69.

For the variant U9C U102A A111G U132C A135G, the self-cleavage came to 0. As for U9C U39C A55G A86U U132C, the figure is 1.05.

As for C10U A18G A86G U100C, the self-cleavage is 1.92.

With U9C A51G A56U A67G G93A, the self-cleavage is 1.75. The value for U9C U12C G15A A47U U49A A68G was 0.39.

A11G A18G A114U: the self-cleavage amounted to 0.09. As to U9C A60G A66U C85U U100G, the self-cleavage is 0.59. Take A11G A22G A52G: the self-cleavage was 1.09. As for U9C A33G G80A, the self-cleavage was determined as 0.32.

In the case of U9C A60G A69G U70C, the self-cleavage came out at 0.08.

In the case of U9C A59U A69G A78G A94G A111U, the self-cleavage came to 0.03. The value for U9C A92G C121U was 2.37; that for U9C C32U A110G was 0.12; that for U9C G106A A111G was 0.01.

U9C A22G A90G: the self-cleavage is 2.1.

In the case of U9C A30U A78G A118G, the self-cleavage is 0.15. The value for U9G A22G A23U A90G was 0.71; that for U9C A11U G14C was 1.15; that for U9C U72C U131C was 0.2. U9C A56G C81G A98G A117G: the self-cleavage stood at 0. The value for A11G A18C U127C was 0.64; that for U9C A33G U103C was 0.42. The value for U9C A47G A94G U132C was 1.46.

Consider U9C U12C A22G A89G A126G U127C, for which the self-cleavage was found to be 0.71. The value for U9C A18G G79A A92G A111G U120C was 0.01; that for U9C A91G U97C U133C was 0.92. Take U9C U127A G138U: the self-cleavage worked out at 1.84. On to U9C A64G U70A, for which the self-cleavage was 0.79.

As for U9C A24G A47G A55U U132A, the self-cleavage turned out to be 0.28. The value for A11C A96G A140G was 2.65; that for U9C U39C A51G A116G A117G U122C was 0.28; that for U9G U102C U130A U131C was 1.12. The value for U9C A56G A95G U132C was 1.93; that for U9C A23G U130C was 0.83; that for U9C A33G U127A was 1.43. With A11G A18G U43A U108A, the self-cleavage amounted to 0.06. As for U9C A23G G41A A66G, the self-cleavage stood at 1.23.

As for U9C A94G A98G, the self-cleavage was determined as 1.21. For U9G U43C A59U A62G A92G, the self-cleavage was 1.78.

Turning to A11G A22G A47G, the self-cleavage is 0.72. As for U9C U37C U38C U108C, the figure is 0.04; as for U9C A126G U132C, 0.79. The value for U9C A52U A86C A118G was 0.46; that for U9C U19C U39A A68C U87C A125G U131C was 0.52.

As for A11G A22G A30U A66G A94G A114G, the self-cleavage came to 0.66. The value for C10A A18G A55G was 1.18; that for U9C A47U U97C was 1.01. The value for C10U A33G A95G U127A was 0.83; that for U9C A116G U130C was 0.15.

Regarding U9C A54G U132C, the self-cleavage is 2. As for U9C U38C U70A A126G, the figure is 0.28. The value for U9C A13U A33U U102A A114U U131C was 0; that for U9C G29A U87C A118U was 0.65; that for U9C U19C U72C A86G was 0.28.

In the case of C10A U49C A64G A94G U100C, the self-cleavage is 0.82. As for U9C U38C A59G A114G, the figure is 0.55; as for C10U A63G U100C, 1.81. The value for U9C U87C A89G was 1.18; that for U9C A111G U120C was 0.02. Consider U9C U26A U87C, for which the self-cleavage was 1.85.

With A11G A22G A63G, the self-cleavage turned out to be 1.59. Regarding U9C A54G A68G U72A, the self-cleavage came to 0.28. In the case of U9C C17U A22G A91U, the self-cleavage turned out to be 1.08. As for U9C A23G U70A, the figure is 2.37; as for U9C U70C A114U, 0.09. In the case of A11G A23G A54G U102C, the self-cleavage was 1.02.
